In article PMC4336329 (PLoS ONE, 2015):
Screen size: about 310,000 compounds; about 14,000 (4.5%) showed an effect of 50% or more. The effect is printed as a negative number. Some of the results follow.

target: human ether-à-go-go-related gene (hERG) potassium channel (human, UniProt Q12809); assay: primary screen, population patch clamp on CHO cells stably expressing hERG
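Also: peak tail current of the secondary pulse compared with the same well before compound.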

Sequence of human ether-à-go-go-related gene (hERG) potassium channel (Q12809 whole entry, looked up): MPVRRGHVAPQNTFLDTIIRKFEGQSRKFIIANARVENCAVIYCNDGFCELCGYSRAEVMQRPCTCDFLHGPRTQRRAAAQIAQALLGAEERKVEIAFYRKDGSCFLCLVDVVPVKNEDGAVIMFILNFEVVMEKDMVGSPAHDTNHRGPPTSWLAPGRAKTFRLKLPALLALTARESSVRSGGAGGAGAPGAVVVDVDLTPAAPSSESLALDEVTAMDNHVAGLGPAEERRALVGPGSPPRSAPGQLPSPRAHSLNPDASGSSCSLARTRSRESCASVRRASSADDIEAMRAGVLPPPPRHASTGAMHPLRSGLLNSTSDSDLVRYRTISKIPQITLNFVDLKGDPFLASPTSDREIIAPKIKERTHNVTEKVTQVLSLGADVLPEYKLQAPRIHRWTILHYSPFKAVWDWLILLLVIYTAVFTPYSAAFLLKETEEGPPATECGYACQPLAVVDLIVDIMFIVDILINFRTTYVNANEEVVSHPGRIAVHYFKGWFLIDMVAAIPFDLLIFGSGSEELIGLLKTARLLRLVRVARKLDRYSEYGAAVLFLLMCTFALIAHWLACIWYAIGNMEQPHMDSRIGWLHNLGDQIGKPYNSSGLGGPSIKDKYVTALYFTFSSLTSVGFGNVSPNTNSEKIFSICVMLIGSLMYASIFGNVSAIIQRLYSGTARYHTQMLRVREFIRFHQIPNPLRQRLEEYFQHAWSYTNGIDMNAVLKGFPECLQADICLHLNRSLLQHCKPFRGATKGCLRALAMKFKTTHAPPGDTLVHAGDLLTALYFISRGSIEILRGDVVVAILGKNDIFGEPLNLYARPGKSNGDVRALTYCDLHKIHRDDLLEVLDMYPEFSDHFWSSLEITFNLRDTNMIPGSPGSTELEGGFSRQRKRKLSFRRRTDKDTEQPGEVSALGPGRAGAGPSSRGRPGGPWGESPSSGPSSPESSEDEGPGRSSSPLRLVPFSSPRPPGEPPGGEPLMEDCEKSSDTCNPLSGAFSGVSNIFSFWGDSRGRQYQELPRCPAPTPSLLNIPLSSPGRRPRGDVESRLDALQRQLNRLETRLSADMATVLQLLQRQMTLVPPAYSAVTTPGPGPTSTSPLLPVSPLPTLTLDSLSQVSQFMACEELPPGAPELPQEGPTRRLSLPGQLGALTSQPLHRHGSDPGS

Structure (SMILES) | hERG current change (%, negative = inhibition) at 10uM [%]
COC(=O)c1cc(S(=O)(=O)N2CCOCC2)ccc1Sc1ccccc1N | -6.97
Cc1cc(C)c2oc(C(=O)Nc3ccc(S(=O)(=O)Nc4nccc(C)n4)cc3)cc(=O)c2c1 | 16.1
CCOC(=O)c1ccc(Oc2nc(OC)cc(OC)n2)cc1 | 10.8
CN1C(=O)C(O)(CC(=O)c2ccccc2O)c2cc(Br)ccc21 (stereo not shown) | 3.54
COc1ccc(C(=O)OCC(=O)NCC2CCCO2)cc1 (stereo not shown) | 17.7
Cc1ccc(OCC(=O)N2CCN(C(=O)c3cccc(F)c3)CC2)cc1 | -13.3
O=C(Nc1ccc(F)cc1F)c1cccnc1 | 21.1
CC(=O)c1cccc(NC(=O)CSc2ccc(-c3ccc4c(c3)OCO4)nn2)c1 | 7.69
CCOc1ccc(NC(=S)Nc2ccc(OC)cc2)cc1 | 12.8
Cc1ccc(S(=O)(=O)N(C)Cc2ccc(C(=O)N/N=C/c3ccc(OC(F)F)cc3)cc2)cc1 | 10.7
COc1ccc(S(=O)(=O)N(C)CC(=O)NC2CCCC2)cc1OC | 13.7
O=C(/C=C/c1cccc(F)c1)Nc1cc(S(=O)(=O)N2CCOCC2)ccc1N1CCCC1 | -57.7
COC(=O)[C@@H]1C[C@@H]2CC[C@@H](O)C[C@@H]2N1Cc1ccccc1OS(=O)(=O)c1ccc(C)cc1 | -10.2
Cc1ccc(C2C3C(=O)N(c4ccccc4)C(=O)C3N3CCCN23)cc1 (stereo not shown) | 14.9
NS(=O)(=O)c1ccc(CCNC(=O)CNCCc2ccc(C(F)(F)F)cc2)cc1.O=C(O)C(=O)O | -21.5
CC1CCCN(c2ccc(/C=C(\C#N)c3nn(-c4ccccc4)c(N)c3C#N)cc2[N+](=O)[O-])C1 (stereo not shown) | 12.9
CC(=O)OCCN1C(=O)c2cccc3cc([N+](=O)[O-])cc(c23)C1=O | -26.9
Cc1ccc(OCC(=O)N(Cc2cccc(Cl)c2)C2CCS(=O)(=O)C2)cc1C (stereo not shown) | 4.83
CCCN(C(=O)c1ccccc1N)c1c(C)n(C)n(-c2ccccc2)c1=O | 12.7
Cc1ccc(C)c(NC(=O)CN(C)C(=O)c2ccc3[nH]c4c(c3c2)CC(C)CC4)c1 (stereo not shown) | 12.1
Cc1ccc(-c2cc(C(=O)NCCCN3CCOCC3)no2)cc1 | -30.8
CCN1CCc2c(sc(NC(=O)Nc3ccc(Cl)c(Cl)c3)c2C(N)=O)C1 | -41.5

Structure (SMILES) | hERG current change (%, negative = inhibition) at 10uM [%]
NC1=C(Br)C(=O)c2ccccc2C1=O | 5.22
COC(=O)c1cn(Cc2ccc(C(F)(F)F)cc2)cc(F)c1=O | 5.58
O=C(NCCCCCCOC1=NS(=O)(=O)c2ccccc21)C(=O)Nc1ccccc1 | 17.1
CC(=O)N1CCN(c2ccc(NC(=O)c3ccccc3Br)cc2Cl)CC1 | -23
O=C(/C=C/c1ccc2c(c1)OCO2)c1ccc[nH]1 | -4.59
CCCOc1ccc(N2C(=O)CC(N(CCc3ccc(OC)cc3)C(=O)c3ccccc3)C2=O)cc1 (stereo not shown) | -10.6
CC(C)NC(=O)CN1CCC(c2ccccc2)C(O)C1 (stereo not shown) | 20.1
CCN(CC)CCN(C(=O)c1ccc(Br)s1)c1nc2cc3c(cc2s1)OCCO3.Cl | -1.19
CCCSc1nc2cc(S(=O)(=O)N3CCOCC3)ccc2n1CC | -9.64
CCOC(=O)c1cn(CC2CC2)c2cc(F)c(F)cc2c1=O | -16.2
CCOc1ccc(-n2c(-c3cccs3)nc3ccccc3c2=O)cc1 | 25.7
CCOc1ccc(-c2nn(-c3ccccc3)cc2/C=C2\SC(=S)N(C3CCS(=O)(=O)C3)C2=O)cc1 (stereo not shown) | 9.23
O=c1[nH]cc(N2CCCCCC2)c(=O)[nH]1 | 15.6
Cc1ccc(CONC(=O)c2ccccc2)cc1 | 19.6
C=CCn1c(SCCNC(C)=O)nc2cc(-c3ccccc3)sc2c1=O | 3.58
CC(=O)N1c2ccc(S(=O)(=O)NCC3CCC(C(=O)NC4CCCCC4C)CC3)cc2CC1C (stereo not shown) | -12.2
CC(C)CCn1c(N2CCCC2)nc2c1c(=O)n(C)c(=O)n2C | 7.4
CCN(CC)CCNS(=O)(=O)c1ccc2c3c(cccc13)C(=O)N2 | 4.08
O=C(CCCSc1nc2ccccc2[nH]1)NC1=NCCS1 | -7.59
Cc1ccc2c(c1)/C(=N/OS(=O)(=O)c1ccccc1)CCS2 | -0.661
COc1cc(C(=O)N(Cc2ccco2)Cc2cc3ccccc3[nH]c2=O)cc(OC)c1OC | -19.9
